The text below walks through data of the supplement of paper PMC4466236.

Whole data set: some 33,000 sequences, median “E-score (dimensionless, -0.5 to 0.5)” near -0.058, cut for the highest 2% near 0.35. Some of the results follow.

In this test the test system is MvaT. The test can be described thus: PBM 8-mer E-score (mean of HK and ME arrays) (E-score (dimensionless, -0.5 to 0.5)); higher = stronger relative binding preference; most listed sequences are background and not binding sites. The essentials: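 Full-length P. aeruginosa MvaT carrying an N-terminal glutathione S-transferase tag was tested by protein binding microarray following a previously described protocol. Two universal double-stranded 60-mer arrays, ME and HK, were used, each with a constant 25-mer primer region and a variable 35-mer region covering all 8-mers. The rank-based E-score is the mean of the two arrays, parsed with a custom script. Its range runs from -0.5 to 0.5 for each 8-mer.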
Take ATATGAGA: the “PBM 8-mer E-score” value stood at 0.123.
For CCCATTAG, the “PBM 8-mer E-score” value turned out to be 0.0585.
The value for ACTAATTG was 0.308; that for GGCAAACA was -0.0281.
On to CCAGATCC, for which the “PBM 8-mer E-score” value was -0.268.
The value for CGTGCAAA was 0.0455; that for GTATGCAA was 0.0565.
With GAATTGGC, the “PBM 8-mer E-score” value was -0.101.
As for ATAAACAT, the “PBM 8-mer E-score” value turned out to be 0.342.
Regarding TAACCTAA, the “PBM 8-mer E-score” value stood at 0.212.
On to CTGAAGAA, for which the “PBM 8-mer E-score” value was determined as 0.0648.
To CTCACCAC belongs -0.026; to ACCGTGTA, -0.0272.
For the sequence CAATCCAC, the “PBM 8-mer E-score” value was -0.103.
As to TAAGCTGA, the “PBM 8-mer E-score” value is -0.0825.
To AACCGGTA belongs 0.0271; to TAAATTCA, 0.3; to CCACCAGA, -0.233.
The value for GTACATCA was -0.0193; that for ATCGAATA was 0.207; that for AGCTGCCT was -0.216.
As to TCATATAA, the “PBM 8-mer E-score” value worked out at 0.379.
For AGCTTTAG, the “PBM 8-mer E-score” value is -0.126.
On to CCTTGGGC, for which the “PBM 8-mer E-score” value is -0.134.
The value for CTCTAGAA was 0.101; that for GGGAGAGA was -0.14.
On to CAGTTCAG, for which the “PBM 8-mer E-score” value was -0.0792.
On to AAAATTAC, for which the “PBM 8-mer E-score” value stood at 0.149.
For the sequence ATGGCCAC, the “PBM 8-mer E-score” value was -0.162.
For the sequence TAAGAGGA, the “PBM 8-mer E-score” value was 0.00738.
Turning to ATGAAAAT, the “PBM 8-mer E-score” value was 0.243.
With GTTGAAAA, the “PBM 8-mer E-score” value came out at 0.0872.
Take AAGGCGAG: the “PBM 8-mer E-score” value is -0.313.
Turning to CCGTCTAA, the “PBM 8-mer E-score” value amounted to 0.0692.
As to CTGTAAGA, the “PBM 8-mer E-score” value was -0.0539.
Regarding AACAAACC, the “PBM 8-mer E-score” value was 0.109.
For the sequence CGACTGCA, the “PBM 8-mer E-score” value was -0.158.
The value for AACCGACT was 0.00127; that for ACAGATGC was -0.179; that for AGTGACTA was 0.0906.
Take TCAGTAAA: the “PBM 8-mer E-score” value was 0.118.
As to CCTCATAC, the “PBM 8-mer E-score” value was -0.0935.
Regarding AGGCCATG, the “PBM 8-mer E-score” value was -0.221.
To GCAAAAAC belongs -0.0305.
The value for CTCAAGAC was -0.214; that for ACCTATAG was 0.0154; that for CATCTCCC was -0.307.
The value for CGCCGCGA was -0.258; that for GTTAACTA was 0.362; that for CGTCCCAA was -0.102.
With CTCACCCC, the “PBM 8-mer E-score” value is -0.215.
The value for TACACCAA was 0.134; that for CCACAGGA was -0.171; that for AAGAGCCC was -0.234.
To CCAAAACG belongs -0.114; to ATGTCGGC, -0.0413; to TACCAAGA, -0.0377.
To CCCCAGCA belongs -0.305; to GCAGTTGA, -0.0295.
Consider AACTGCCC, for which the “PBM 8-mer E-score” value was -0.0879.
For the sequence ACAGTTTC, the “PBM 8-mer E-score” value is 0.0803.
The value for AGGCCACT was -0.147; that for TCGCAGAA was -0.179; that for AATAGTCT was 0.268.
For the sequence ATTCCCTA, the “PBM 8-mer E-score” value is 0.0104.
To AAGCGCCA belongs -0.182; to CCTTTTCA, -0.00742.
CTGGCGTC: the “PBM 8-mer E-score” value is -0.306.
Regarding CACCCGAC, the “PBM 8-mer E-score” value was -0.267.
ACTTCAAT: the “PBM 8-mer E-score” value is 0.317.
As for ATTGTTGC, the “PBM 8-mer E-score” value came out at 0.225.
Turning to AGTCCAAA, the “PBM 8-mer E-score” value was 0.126.
Consider CAGGCTCA, for which the “PBM 8-mer E-score” value is -0.229.
As to GGTGATCA, the “PBM 8-mer E-score” value was -0.275.
For the sequence GGTTATGA, the “PBM 8-mer E-score” value is -0.0507.
On to AAGCTCCC, for which the “PBM 8-mer E-score” value is -0.32.
The value for CGTACACC was -0.0808.
The value for GCCCCGAC was -0.173; that for ACGGAGTA was 0.0493.
With AGACATTG, the “PBM 8-mer E-score” value is -0.0117.
Regarding TACTGAAA, the “PBM 8-mer E-score” value is 0.0856.
The value for GGCTAAGA was -0.00396.
In the case of AGCGCCGG, the “PBM 8-mer E-score” value is -0.31.
With AACCAGTT, the “PBM 8-mer E-score” value came out at 0.0597.
As to AGCCTCGG, the “PBM 8-mer E-score” value is -0.155.
As to ACGCGCGT, the “PBM 8-mer E-score” value is -0.0224.
